Whole data set: some 2,700 sequences, median “arbitrary fluorescence units” near 4,100, cut for the highest 2% near 54,000. The list shows a part of the results.
molecular target: T1, ETS1 (UniProt P14921); test: ETS1 binding intensity (PBM fluorescence) (arbitrary fluorescence units); higher = stronger binding; details: ETS1 concentration 10 nM
T1 sequence: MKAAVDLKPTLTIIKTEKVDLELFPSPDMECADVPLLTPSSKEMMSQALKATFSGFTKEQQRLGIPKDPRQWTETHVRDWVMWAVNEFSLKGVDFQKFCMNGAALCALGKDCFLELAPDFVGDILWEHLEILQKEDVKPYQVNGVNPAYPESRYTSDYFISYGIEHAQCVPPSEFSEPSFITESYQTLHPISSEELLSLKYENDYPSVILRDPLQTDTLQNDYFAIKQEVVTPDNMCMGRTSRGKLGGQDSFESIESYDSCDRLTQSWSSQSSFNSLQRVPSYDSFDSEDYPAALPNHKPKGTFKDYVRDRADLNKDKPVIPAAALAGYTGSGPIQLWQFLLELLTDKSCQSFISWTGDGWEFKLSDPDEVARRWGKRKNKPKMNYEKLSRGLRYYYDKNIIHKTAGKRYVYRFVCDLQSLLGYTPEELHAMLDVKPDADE
Description: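 gcPBM on wild-type 36-bp genomic probes with two neighbouring ETS1 sites (4-24 bp apart). Recombinant human ETS1 (10 nM) was detected with anti-ETS1 antibody fluorescence. Values are medians over 3 replicate spots. The probes sit in constant array flanks that are not printed.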

| Sequence | ETS1 binding intensity |
| --- | --- |
| TACACCAGTTTCCTTTGAGCCCACATCCTTTCTCGT | 2360 |
| TCCATTTCCTTTGACCTTGGGGACCCAGGAAGGTGC | 11800 |
| CGCGCCGCCTCCGGGAAGCCTTCCGGCCTTCTCCCT | 2500 |
| GTTTGCTGGCTTCCGCCCCTCCAGGAAAAAAAATCA | 12500 |
| GAATGGGGGAGCCGGAAGCAGGAAGTGAGTTTGCGA | 13600 |
| AGCTGGCCCGGAAGTGGCTTGCAGGAAGGAGTTGAG | 17100 |
| TGTTTTGGCGGAAGGACCACAGAGGAAGTCCTTGTC | 1370 |
| TCGGATAACAACTTCCGCTCGGGAAGTTTGTAAAAG | 28900 |
| CTTAATACTTCCTCTGCCTGGCTCCTTCCTGGCCCG | 6950 |
| GCCACCAGGCGGAAGTGCGTACCGGAAGTGCCGGCG | 18100 |
| GTCAGTTCCGGACCGGTCCGCGGACTCTTCCGGCGC | 12600 |
| CCCGGTCGGGGCGGAACGACATCCGGTAACGCCCCT | 17800 |
| TTGAGTGATCTTCCTGCCTCGGCTTCCTGTGTAGCT | 4950 |
| CCACTTATCATCCTGAAAATCAGAGGAAGCATCAAG | 171 |
| AATAATATTTCCTCCCCTCAGCCAGGATGCTTTTTC | 3460 |
| TGAAGCCGGAAGAAAGTTCTGGGACTTCCCCTTCTC | 1710 |
| CTCAGAGACCGGTTCCGGCCAGGAACGGGAAGTGCC | 1740 |
| ACTCCACTTCCCAGAATTCCTAAGCGGAAGCGTCTC | 1160 |
| CTTCCCTGGTAACATCCGGCATCCTGGGGCTGCCAA | 18800 |
| CGCGACTGTGAATTTCCGTTTCCGGCGGTGTCCATG | 21100 |
| GCTGGTGCTCCAGGATGCGTTTCCTGCCCGCGCACC | 5880 |

| Sequence | ETS1 binding intensity |
| --- | --- |
| CAGCTGTTTCCTCGTATTTCTGCAGCTTCCTCTTTC | 1170 |
| ATCTGGAGGGGAAGTGGGTTGGCTTCCTGCCAGGGC | 2480 |
| GTCGCGGCTTCCGCTGAGCTGCCTGTTCCGGGGCAC | 18800 |
| GCCCTCAGGAAACTTAGAATCATGGCGGAAGGCGAA | 221 |
| CTGAGCCCTCTTCCGTCACACAGGAAGCTGCAGGGC | 3770 |
| CCACAGGAAATTATGATAGCAAAAGTCTTCCTGTCG | 3310 |
| AGGCCCTCTGCTTCCTAAACACTTCCCTTGAAGGGC | 392 |
| GCATTTCCCTCTTTTGAACAGCAAAATAGGAAATTG | 5250 |
| ATTTGGCCTCACAGGAAACAGGAAATACCAGAAAAG | 6530 |
| CTGATAAGGATGTGGGTAGCTATAAAGGAAATATTT | 232 |
| TGCGGGGCGGAAGCCGGGGCGTGACTTCCGGCGCCG | 11600 |
| AGACCATCCGGCTGAATCAGAGCCCGGAGGAAATAC | 8540 |
| CCGTTTCCCAGGAGCCCCAGGTGGGGTCTTCCGGTT | 2040 |
| GACGTTCCGCTGCGCCCCGCGCAAAACCGGAAGTAC | 8560 |
| CGCCATACCTGGCTTCCGCTTCCGGTGGCTTCTCGT | 28200 |
| ACGCCCTACTTCCGGCTGCCAGCTTCCTGTTATGGT | 50300 |
| CTCCCCGCGGCGGATGCGCGCGGAACGGATGGGCGC | 762 |
| GAGGCAGGAAAGAACTGGGCAGGTCCAGGAAACAGA | 288 |
| ACACTTCCTTTGAAAAACAGAATGTCACTTCCTCAG | 16300 |
| CGGCTGTCTGTTTCCGCTCTAAGGAAACTCAGAGCG | 20000 |
| CTGGCTTCCTTTTACCACCACTGTCTGCTTCCTCAT | 3880 |

| Sequence | ETS1 binding intensity |
| --- | --- |
| CCGAGGGGAGGGAGGAAGTGGGAAGTCACCCCTGTC | 1680 |
| TTGTTTGAACAGGAAGAGTCACTTCCTTGTTATGCT | 2390 |
| GGTTAGGCTGCGTTTCCTGTTTCCTGTAGCTTTATG | 17200 |
| TCTGGCCCTTCCTGCCCCAGGGACTTCCTGTTGCTA | 11900 |
| GCTCTCATCCGCACTGTCTCTTACAACATCCTGGCA | 3020 |
| TAGAGGGAGACAGGAAGACAGGAAGGGGAGTATGCT | 1530 |
| CTCATGGGAAATGTAGTCCTCATCGGCTTCCGCATC | 229 |
| CCCACGAGGGAAGTGTCCCCTGCCCATCCTGCCTTA | 188 |
| CAAGAACGCATACATCCTCAGGAAACTCACACTTCG | 580 |
| CCGGGGCGGAACCTGGACTCCCCGCCTTCCTCCCAC | 179 |
| GACTGCACTTCCTAAAACAAGCACATCCCCATACCT | 2960 |
| TACCAGGAAGTCTCCAAAGGAGGGAGCAGGAAGAGA | 992 |
| AGTCACTTCCCCCGCTGGGGACGCGCTTCCTCCCCG | 3860 |
| GTGGACTTCCTTGACCCAGACTTTCAGGAAGGAGCT | 4530 |
| GGCCGCTCCCCGGAAGGCCTCATCCTGCGCGGCTGG | 989 |
| TGGAGATCCAGGAAGCAGGACAGGATGTGTGGTGCT | 2750 |
| GAGGCGCTTCCTCAGTTGGACTCCACTTCCTCTCCG | 4590 |
| ATTTTTAAAACAGGAAAACGTTTCCCTTACTCGAAC | 799 |
| CCCTGCGTTTCCCTCATGAGCTTCTTCCGCCCGCAA | 788 |
| GAGAGCGGAACACTGCGTACGCGCACTTCCGGTCTT | 21400 |
| GCGCGGAAAACCCGGAAAGTGGATTTCGCCCCCGCT | 297 |

Source: the supplement of paper PMC10681739
